Measurements from the RNAGym collection of RNA variant scans (doi:10.7554/elife.90254).
Read counts are not given, so values of variants with three or more changes are uncertain.

B1: LINE1-mini (parent)
chain: GGCAGAGCUCAACACAGCGUGGCAAAGUGGCUGUGGCUAGACUGCC

Variants of: B1
Assay: self-cleavage, relative activity (ratio to wild type); higher = more cleavage; in vitro, sequencing; the parent is a self-cleaving ribozyme

| Variant | self-cleavage |
| --- | --- |
| GACAGAGCUCUAGACAGCGUGGCAAAGUGGCUGUGGCUUGACUGCC [G2A A11U C13G A39U] | 0.03 |
| CGCAGAACUCAACCCAGCAUGGCAAAGUGGCUCGGGCUAGACUGCC [G1C G7A A14C G19A G33C U34G] | 0.01 |
| GGCAGGGCUCAACACAGCGUGGCAAAGUGGCUGUGGCUAGAGUGAA [A6G C42G C45A C46A] | 0.01 |
| GGCAGAGCUCAAAACAGCGUAGCAAAGUGGGUGUGGCUAGACUGCG [C13A G21A C31G C46G] | 0.02 |
| GGCAGAGCUCAACACCGCGUGUCAAAGUGGUUGUGGCUAGACUUCC [A16C G22U C31U G44U] | 0.04 |
| GGCGGAGCUCAACACAGCGUUGCAAAGUGGAUGUGGCUAGACUGCC [A4G G21U C31A] | 0.25 |
| GUCAGAGCUCAACACAGCGUGGCAAAGUGGCUGUGGCUAGUUUGCC [G2U A41U C42U] | 0.04 |
| GGCAGAGCUCAUCUCAGCAUGGCAAAGUACCUGUGGCUAGACUGCC [A12U A14U G19A G29A G30C] | 0.07 |
| UGCAGAGCUCAACACAGCGUGGCAUAGUGGCUGUGGCUAGUCUGCC [G1U A25U A41U] | 0.31 |
| GGCAGAGCUCCACACAGCGUGGCCAAGUGGCUGUGGCAAGACUGCC [A11C A24C U38A] | 0.03 |
| GGCAGAGCUCAACAAAGCGUGACAAAGUGGCUGUGGCCUGACUGCC [C15A G22A U38C A39U] | 0.04 |
| GGCAGAACUCAACACAGCGUGUCAAACUGGCUGUGGCUAGACUGCC [G7A G22U G27C] | 0.09 |
| GGCAGAGCUCAGCACGGCGUGGCAAAGUCGCUGUGGCUAGACUGCC [A12G A16G G29C] | 0.18 |
| GGCAGUCCACAACACAGCGUGACAAAGUGGCUGUGGAUAGACUGCC [A6U G7C U9A G22A C37A] | 0.03 |
| AGUAUAGCUCAACACAGCGUGGCAAAGUGGCUAUGGCUAGACUGCC [G1A C3U G5U G33A] | 0.3 |
| GGGAGAGCUCAUUACAGCGUGGCAAAGCGGCUGUGGCUAGACUGCC [C3G A12U C13U U28C] | 0.12 |
| UGGAGAGCUCGACACAGCGUGGCAAAGUGGCUGUGGCUAGACUGCC [G1U C3G A11G] | 0.11 |
| GACAGUGCGCAGUACGGCGUGGCAAAGUGGCUGUGGCUAGACUGCC [G2A A6U U9G A12G C13U A16G] | 0 |
| GGCACAGCUCUACAGAGCCUGGCAAAUUGGCUGUGGCUAGACUGCC [G5C A11U C15G G19C G27U] | 0.01 |

| Variant | self-cleavage |
| --- | --- |
| GACAGCGCUCAACACGGCGUGGCAAAGUGGCUGCGGCUAGACUGCC [G2A A6C A16G U34C] | 0.04 |
| GGCAGAGCUCAACACAGCGUGGCAGAAUGGCUAUGACUAGACUGCC [A25G G27A G33A G36A] | 0.02 |
| GGCAGAGCUCGACACAGCGCGGCAAAGUGCCUGUGGCUCGACUGCC [A11G U20C G30C A39C] | 0.01 |
| GGCAGAGCUCAACACAGCGUGGCAAAGUGGCUGCGCCUAGACAGCC [U34C G36C U43A] | 0.02 |
| GGCAGAGCGCAACACAGCGUGGCAAAGUGGUUGUGGCCAGACUGCC [U9G C31U U38C] | 0.02 |
| GGCAGAGCACAACACUGCGUGGCAAAGUGGCUGUGGCUUGAGUGCC [U9A A16U A39U C42G] | 0.26 |
| GGCAGAGCUCAUGUCACUGUGGCAAAGUGGCUGUGGCUAGACUGCC [A12U C13G A14U G17C C18U] | 0.02 |
| GGCAGACCUCACCACAGCGUGGCAAAGUGGCUGAGGCUAGACUUCU [G7C A12C U34A G44U C46U] | 0.02 |
| GGCAGAGCUAAACACAGCGUGCCACAGUGGCUGUGGCUAGACUGCC [C10A G22C A25C] | 0.03 |
| GGCAGAGAUCAACACAGCAUAGCAAAGUGGCUGUGGCUAGACUGCC [C8A G19A G21A] | 0.91 |
| GGAAGAGCUCGACACAGCGUGGCAAAGUGUCUGUGGCUAGACUGCC [C3A A11G G30U] | 0.04 |
| GGCAGAGCUCAACACAGCGUGACAAAAUGGCUGUCGCUAGACUGUC [G22A G27A G35C C45U] | 0.11 |
| GGCGGAGCUCAACACAGCGAGGCAAAGUGGUUGUGGCUAGACUGCC [A4G U20A C31U] | 0.04 |
| GGCAUAGCUCAACAAAACGUGGCAAAGUGGCUGUGGCCAGACUGCC [G5U C15A G17A U38C] | 0.06 |
| GGCAGGGCUACACACAGCGUGGCAAAGUGGCUGUGGCUAGAAUGCC [A6G C10A A11C C42A] | 0 |
| GGCAGAGAUCAACAAAGCGUGGCAAAGUGGCUGUGGUUAGACUGAC [C8A C15A C37U C45A] | 0.41 |
| GGCAUACCUCAACCCAGCGUGGCAAAGUGGCUGUGGUUAGACUGCC [G5U G7C A14C C37U] | 0.03 |
| GGCAGAGCUCAACACAGCGUGGAAAAGUGGGUGUGCUUAGACUGCC [C23A C31G G36C C37U] | 0.02 |
| GGCAUAGCUCAACACAGCAUGUCCAAGUGACCGUGGCUAGACUGGC [G5U G19A G22U A24C G30A U32C C45G] | 0.02 |

| Variant | self-cleavage |
| --- | --- |
| GGAAGAGCUCAACACAGCCUGGCGAUGUGGCUGUGGCUAGACUGCC [C3A G19C A24G A26U] | 0.15 |
| GGCAGAGCUCAACAGAGCGUUGUGAAGUGGCUGUGGCUAGACUGAC [C15G G21U C23U A24G C45A] | 0.01 |
| GGCAGAGCGCAACACGGCGUGGCAAAUGGGCUGUGGCUAGACUGUC [U9G A16G G27U U28G C45U] | 0.09 |
| GGCAGAGCUCAACACAGCAUGUCAAAGUGCCUGUGGCUAGACUGCC [G19A G22U G30C] | 1.09 |
| GGCUGAGCUAAACACAGCGUGGCAAAGUGGCUGGGGCUAGACUGCC [A4U C10A U34G] | 0.02 |
| GGAAUAGCUCAACACCGCGUGGCAAAGCCGCUGUGGCUAGACUGCC [C3A G5U A16C U28C G29C] | 0.1 |
| UGCAGAGCUCAACUCAGCGUGGCCAAGUGGCUGUGGCUACACUGCC [G1U A14U A24C G40C] | 0.07 |
| GGCAGAGCUCAACACAGUGUGGCAAAGUGGGUAUUGCUAGUCUGCC [C18U C31G G33A G35U A41U] | 0.03 |
| GGCAGAGCUCAACACAUAGUGUCAAAGUGUCUGUGGCUAGACUGCC [G17U C18A G22U G30U] | 0.06 |
| GGCAAAGCUCAACACAGCGUGCCAAAGUGGCUCUGGCUAGACUGCC [G5A G22C G33C] | 0.04 |
| GGGGGAGUACAACACAGCGUGGCAAAGUGGCUGUGGCUAGACUGCC [C3G A4G C8U U9A] | 0.08 |
| GGCAGAGCUCAACACAGCUUGGCAAAUUGGCUGUUGCUAGACUGCC [G19U G27U G35U] | 0.09 |
| GGCAGAGCUCAACACAGCGUGGCAAAGUUGCUGUGGCUUCACUGUC [G29U A39U G40C C45U] | 0.12 |
| GGCACAGCUCAACACAGCGUGGCAAAGGGGCUGCGGUUAGACUGCC [G5C U28G U34C C37U] | 0.03 |
| GGCAGAGCUCAACACAGCGAAGCAAAGUGGCUGUGGGUAGACUGCC [U20A G21A C37G] | 0.01 |
| GGCAGCGCUCACCACAGCGUGGCAAAGUAGCUGUGGCUAGAUUGCC [A6C A12C G29A C42U] | 0 |
| AGCAGAGCUCAACACAGCGUGGCUAAGUGGCUGUGGCUAGACUGAC [G1A A24U C45A] | 0.14 |
| GGCAUAGCUCAACACAGCGAGGCAAAGUGGCUAUGGCUAGACCGCC [G5U U20A G33A U43C] | 0.01 |
